In US20180339031A1:
Residue numbers refer to the chain shown, from its start.

B1: O32 antibody (antibody, human IgG1, lambda, V domains shown)
VH: [letters of about 120 residues not shown]
VL: SYVLTQPPSVSVAPGKTARITCGGNKIGHRAVHWYQQKPGQAPVLVIYYTYDRPSGIPERFSGSNSGNTATLTISRVEAGDEADYYCQVWDASRRDANVVFGGGTKLTVLG
B2: O38 antibody (antibody, human IgG1, lambda, V domains shown)
VH: [letters of about 120 residues not shown]
VL: QPVLTQPASLSASPGASASLTCTLRSGINVRDYRIFWYQQKPGSPPQYLLRYKSASDKQQGSGVPSRFSGSKDASANAGILLISGLQSEDEADYYCMIWHHDSEGHAFVFGGGTKLTVLG
B3: O35 antibody (antibody, human IgG1, lambda, V domains shown)
VH: [letters of about 120 residues not shown]
VL: QPVLTQPVSLSASPGASVSLTCTLRSDIRVRDYRIFWYQQKPGSPPQYLLRYKTDSDKQQGSGVPSRFSGSKDASANAGILLISGLQSEDEADYYCMIWHRTTGTSLVFGGGTKLTVLG
B4: O37 antibody (antibody, human IgG1, lambda, V domains shown)
VH: [letters of about 120 residues not shown]
VL: B2 VL with R31K, A55E, H101K, S103R
B5: O41 antibody (antibody, human IgG1, lambda, V domains shown)
VH: [letters of about 120 residues not shown]
VL: SYVLTQPPSVSVAPGKTARITCGGNKIGHRAVHWYQQKPGQAPVLVIYYTYERPSGIPERFSGSNSGNTATLTISRVEAGDEADYYCQVWDWYSEGGVVFGGGTKLTVLG

target: human mesothelin (hMSLN), recombinant soluble extracellular domain (human) (UniProt Q13421); assay: BLI (OctetRED96), IgG on Protein A biosensors, human MSLN in solution, 1:1 global fit, n = 2
UniProt Q13421, sequence (Q13421 other isoform, or with tags, fused parts or gaps limits assumed, form in doubt): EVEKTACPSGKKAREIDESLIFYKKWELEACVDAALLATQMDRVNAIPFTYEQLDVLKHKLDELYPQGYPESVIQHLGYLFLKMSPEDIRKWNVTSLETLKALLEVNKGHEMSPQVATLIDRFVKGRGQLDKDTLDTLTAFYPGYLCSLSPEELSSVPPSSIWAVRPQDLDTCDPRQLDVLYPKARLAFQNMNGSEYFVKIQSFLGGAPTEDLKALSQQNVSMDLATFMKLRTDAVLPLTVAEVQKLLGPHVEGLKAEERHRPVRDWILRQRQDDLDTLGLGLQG

| Kd | Binder |
| --- | --- |
| 529 nM | B1 |
| 168 nM | B2 |
| 22.7 nM | B3 |
| 313 nM | B4 |
| 19 nM | B5 |
